From the BET-seq Pho4 binding data (Le et al. 2018)
The list shows a part of the results. The energies were worked out here from pooled read counts, against the library average; single values are noisy.

target: T1, Pho4 (S. cerevisiae) (UniProt P07270); assay: relative binding free energy (BET-seq); higher = weaker binding; conditions: reference: library average
T1 sequence: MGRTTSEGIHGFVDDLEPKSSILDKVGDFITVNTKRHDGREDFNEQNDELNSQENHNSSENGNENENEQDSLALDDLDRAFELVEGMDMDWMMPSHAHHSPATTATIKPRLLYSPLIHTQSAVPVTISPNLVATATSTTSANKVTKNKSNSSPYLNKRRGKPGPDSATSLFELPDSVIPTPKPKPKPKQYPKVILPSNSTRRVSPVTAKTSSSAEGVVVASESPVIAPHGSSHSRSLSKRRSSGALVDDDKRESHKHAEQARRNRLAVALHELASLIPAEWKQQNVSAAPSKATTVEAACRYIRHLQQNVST

Sequence	relative binding free energy [kcal/mol]
ACTTTCACGTGTACGG	0.35
GTTTTCACGTGGGTGA	0.28
CTTGGCACGTGGGTGA	-0.18
GATGGCACGTGGTTTG	-0.07
ATGGTCACGTGGTCAT	-0.1
TGTGACACGTGAACGG	0.23
TAGTGCACGTGCGGGG	-0.05
GGGCGCACGTGTTGTA	-0.04
TGGAACACGTGAGAGT	0.19
GGTGACACGTGATGTT	0.17
GAAGGCACGTGGCAAT	0.1
ATTGACACGTGGCGGA	-0.05
GGGTGCACGTGACGGG	0.23
GTATGCACGTGGAGAG	0.06
AATGACACGTGGGAGG	-0.1
GGAGTCACGTGGAGCT	0.13
TGCAGCACGTGTGGGC	-0.11
TTTTTCACGTGGGATC	0.3
TTTGACACGTGCGCAT	0.02
AATGGCACGTGGCTTT	-0.19
GGGTGCACGTGATGAT	0.23
TCAGTCACGTGGGGGG	-0.11
GGGTGCACGTGAGTCG	0.34

Sequence	relative binding free energy [kcal/mol]
TTTGTCACGTGGCCAG	0.02
GCGGGCACGTGGAATG	-0.05
TCCATCACGTGGTGTG	0.23
GGTGGCACGTGATATA	-0.01
ATTAGCACGTGAGAGA	0.09
TGGAGCACGTGTGTAC	-0.11
GGCGTCACGTGAGCTT	0.24
AATTACACGTGTGGGG	0.19
TAGGTCACGTGGCTGA	-0.07
TTCTACACGTGTATGT	0.1
GAGTGCACGTGGGACG	-0.12
TTTGACACGTGCAGTT	0.1
ATTCTCACGTGTTGAT	0.12
TGCAGCACGTGGGGGT	-0.4
TAATTCACGTGTTTAT	0.28
TAGAGCACGTGAGGGT	0.05
AGGTACACGTGTGGTA	0.1
CGAGGCACGTGGGCTG	-0.21
TGTCGCACGTGGTGAA	-0.15
GGCAGCACGTGGGGGG	-0.13
TTAAGCACGTGTAATT	-0.05
AGGAGCACGTGGGTAA	-0.23
GTCATCACGTGTGTTT	0.15

Sequence	relative binding free energy [kcal/mol]
AAGTGCACGTGACGGG	0.17
ATGACCACGTGTGGTG	-0.17
TGTCGCACGTGCGGCT	-0.02
GCGAGCACGTGGCGGG	-0.24
CTGGGCACGTGATTAT	-0.06
ATCTGCACGTGTGGTC	0.17
TCAGGCACGTGTCTGG	-0.13
TTTGGCACGTGGGTCC	-0.23
GTTCTCACGTGGTTAA	0.26
TACGTCACGTGGTTGA	0.02
ATGGTCACGTGCTTTA	-0.03
TGAGTCACGTGCTGGA	0.21
AGCGTCACGTGGGGAT	-0.11
ATTAACACGTGAGGGG	0.18
GAAGTCACGTGTAGGA	0.25
TTTGCCACGTGATTGA	0.18
CGGGACACGTGTTTGG	0.04
ATGGTCACGTGGTCGT	0.08
TCAGGCACGTGGGGAT	-0.18
GGGGACACGTGGCTAG	-0.11
TTTGTCACGTGTGGAA	0.15
TGATACACGTGCGGTA	-0.03
GTGCGCACGTGGTAGG	-0.3

Sequence	relative binding free energy [kcal/mol]
TTTGGCACGTGTCGAT	0.03
AAATTCACGTGATTAT	0.31
GTGTGCACGTGAGGTC	0.17
GTGTCCACGTGTTTAT	-0.03
GAGGTCACGTGTATGG	0.21
GCTGGCACGTGGGCAT	-0.18
AATTGCACGTGATGGG	0.21
GAATTCACGTGTAGTT	0.26
AAGCGCACGTGCGGGA	-0.12
GGTATCACGTGTTAGA	0.15
GGGTTCACGTGGTTAT	0.27
AAGGACACGTGAGGAT	0.31
TTGGTCACGTGAGGCC	0.3
GGATGCACGTGTCAGG	0.05
AGTTGCACGTGGACGG	-0.06
CGGTACACGTGTGGGA	0.08
TGAGCCACGTGTGCGT	-0.09
GGTAACACGTGTGGTT	0.06
GTGTTCACGTGTTATA	0.19
TTGCTCACGTGAGTAG	0.37
GAGAGCACGTGTTATT	0.03
TGCCTCACGTGTTAGT	0.33
TGGGCCACGTGGTATT	-0.21

Sequence	relative binding free energy [kcal/mol]
AGCTGCACGTGTAGGG	-0.09
TAATTCACGTGGTCAG	0.17
TTTAGCACGTGGAGTA	-0.05
CAAGTCACGTGTTGGA	0.11
CGGAGCACGTGAGGCG	0.18
GTGAGCACGTGAAGAG	0.23
GGTTGCACGTGTTGGC	0.1
CGGGACACGTGTGTGG	0.02
TCTGTCACGTGTGAGG	0.1
GCGTTCACGTGGGCGT	0.2
AGATGCACGTGTGGGA	-0.01
TTTATCACGTGGAATA	0.2
GGATACACGTGTGTCG	0.05
ATTTTCACGTGCGAGA	0.3
GGTGACACGTGTTCAT	0.03
CTTTTCACGTGAGTAA	0.35
AGGGGCACGTGGACGC	-0.18
TGTTTCACGTGGTGGC	0.29
GGTGGCACGTGACTTT	0.06
GCAATCACGTGTTTGT	0.17
TGTGGCACGTGAGTGT	0.08
GTGTGCACGTGTTGAT	0.13
AAAGTCACGTGAGAGT	0.13
